# According to the supplement of paper PMC3334620:
# In all, about 33,000 sequences were measured (“E-score (-0.5 to 0.5)”: median about -0.012, highest 2% from about 0.27 on). The list shows a part of the results.
# Molecular target: T1, Vhr1 (UniProt P40522)
# T1 sequence: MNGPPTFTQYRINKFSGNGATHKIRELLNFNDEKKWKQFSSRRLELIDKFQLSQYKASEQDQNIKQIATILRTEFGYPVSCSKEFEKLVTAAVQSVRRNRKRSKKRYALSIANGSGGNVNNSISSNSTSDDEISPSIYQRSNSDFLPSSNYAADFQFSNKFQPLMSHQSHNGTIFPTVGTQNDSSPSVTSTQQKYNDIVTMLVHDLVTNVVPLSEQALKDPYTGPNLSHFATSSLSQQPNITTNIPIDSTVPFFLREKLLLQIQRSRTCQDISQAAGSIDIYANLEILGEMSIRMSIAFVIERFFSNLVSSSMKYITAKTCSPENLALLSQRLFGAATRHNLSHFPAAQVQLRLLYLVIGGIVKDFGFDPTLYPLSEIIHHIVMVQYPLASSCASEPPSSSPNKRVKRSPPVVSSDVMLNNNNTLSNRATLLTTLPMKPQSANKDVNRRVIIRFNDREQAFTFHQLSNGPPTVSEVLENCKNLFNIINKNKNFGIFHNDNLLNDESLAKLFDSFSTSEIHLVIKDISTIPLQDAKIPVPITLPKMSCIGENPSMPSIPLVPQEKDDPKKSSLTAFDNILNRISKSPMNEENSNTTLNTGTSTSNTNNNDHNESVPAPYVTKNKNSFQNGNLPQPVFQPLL
# Assay: PBM E-score (8-mer binding enrichment) (E-score (-0.5 to 0.5)); higher = stronger / more preferred TF binding; most listed sequences are background and not binding sites
# Details: protein concentration: 200 nM; construct: GST-full length
# How it was run: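 Universal all-10-mer Agilent arrays, fresh or stripped once, were converted to double-stranded form by primer extension. GST-tagged yeast transcription factors from PURExpress in vitro transcription/translation, full-length or DNA-binding domain only, were applied at about 100-200 nM and detected with fluorescent anti-GST. After masliner normalisation, the Universal PBM Analysis Suite scored each ungapped eight-base word together with its reverse complement by E-score.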
row,Sequence,PBM E-score
1,ATATTCTA,0.122
2,CTTCATTA,0.0378
3,GACGTAGC,-0.175
4,ACGCTACG,-0.127
5,CTGTCCTC,-0.064
6,GTCAGGTA,0.126
7,ATAGAGCA,-0.107
8,GTATGTGA,0.0539
9,CGTAAACA,-0.034
10,CATATGTA,0.142
11,AACTCTCC,-0.0567
12,AGACATGC,-0.00111
13,TGCGTGAA,-0.0372
14,CGAAACAG,0.0846
15,AGGTGCAT,0.0449
16,CAGCTGTC,-0.0706
17,GCTACCAC,0.00628
18,AACACCGA,0.108
19,AAGGGGTA,-0.112
20,ATGCATGA,0.165
21,CTAGACTC,0.0235
22,AAGCCTAA,-0.214

row,Sequence,PBM E-score
1,ATACCGTC,0.00895
2,AAGTCTCC,-0.227
3,CATGAGCA,0.125
4,CAATTGTG,0.0659
5,CGCAGATC,-0.0184
6,CGACTACG,0.188
7,CTGATACA,0.0817
8,AGCCACAC,0.189
9,AAACTCAT,0.205
10,CGGCGCCG,0.252
11,TAAACTCA,0.00823
12,CGAGTCAA,0.278
13,TAACATCA,0.118
14,ACCCAGGG,0.188
15,GAATCCGC,0.0532
16,TAGGACGA,-0.0939
17,CCGACCGC,-0.161
18,ACGCGTCA,0.0944
19,GTCTGACA,0.148
20,AGCTCGCC,0.069
21,GCATCACA,0.0717
22,GTCTTGCA,-0.138

row,Sequence,PBM E-score
1,AATCTACT,0.022
2,GCATCGAA,-0.248
3,GCCTACAC,-0.141
4,ATTCGTGG,0.102
5,CTGCGGGA,-0.0929
6,AGACCGTG,-0.0231
7,ACGTGAGC,-0.101
8,ACTATACA,0.131
9,CGAGGGTA,0.00641
10,TAATATGA,0.158
11,CGTAATGA,0.0462
12,ATAAGGAT,0.133
13,ACAGCTTA,0.0222
14,CTTGAAGA,-0.243
15,ATTGCGTA,0.073
16,AAGTGGCC,-0.124
17,AAGTACTA,0.0913
18,AATGACGT,0.0585
19,ATAGCTAT,-0.132
20,CATCCGCG,-0.00423
21,TGATCCAA,0.167
22,CGGCGTCC,-0.051

row,Sequence,PBM E-score
1,CGAGCCCA,0.086
2,AGTCGCCC,0.346
3,ACCGCTAC,0.00858
4,AAGTCATT,-0.0196
5,CAATGAGC,-0.0675
6,TATAAAAA,-0.0729
7,AGAGGTAG,-0.205
8,GCTGGTAA,-0.148
9,CGGCATCA,-0.0137
10,CTCGAGAA,-0.188
11,AGTAGTTA,0.0583
12,GTAAAACA,-0.157
13,AGTCGGAT,0.216
14,CGCTATGA,0.112
15,ATGCTAGG,-0.069
16,AAATCACG,0.173
17,CCCTCAGC,-0.0147
18,CCCGCGGC,0.272
19,GGCCTCAA,-0.0529
20,AGCCCCGG,0.155
21,CATACATG,0.205
22,GGGCGCGA,0.195

row,Sequence,PBM E-score
1,CTCCAAGC,-0.0811
2,AGAGGAAG,-0.166
3,CAGCCTCC,-0.303
4,ATGTTACG,-0.226
5,ACTCGCAA,0.0242
6,TCCGCAGA,0.0168
7,ATCCGCGC,0.024
8,AATCTCGG,0.0762
9,GATCAACA,-0.0766
10,CGTGAGAC,0.0393
11,AAACCTGG,0.0771
12,CACGAGCA,0.172
13,AAAAGCTA,-0.202
14,ATAAAGTA,0.0422
15,CACCCTCA,0.0412
16,AGTACCCA,0.154
17,CTGCTCCC,-0.0909
18,TCCTTAAA,-0.142
19,GGGTTTTA,-0.19
20,ACGCCCGG,-0.0553
21,CGGGGCTA,-0.19
